The values below come from the antibiotic and cytotoxicity screens of Wong et al. (2023).

The test system of one assay is HSkMC. Kind of assay: cytotoxicity call (relative viability < 0.9). As to conditions: 10 µM.
For the next assay, the system named is HepG2. Kind of assay: cytotoxicity call (relative viability < 0.9). Conditions: 10 µM.
For the next assay, the system named is S. aureus RN4220. The assay is described as follows: growth inhibition call (relative growth <= 0.2). Conditions: 50 µM.

Structures are written as SMILES. The list shows a part of the results.

For `CN(C)C(=O)C[C@@H]1CC[C@@H](NC(=O)C2CCOCC2)[C@@H](CO)O1`, the cytotoxicity call with HSkMC and with HepG2 was “inactive” in each case. Besides, the growth inhibition call in the assay with S. aureus RN4220 was “inactive”.

`C[C@H]1CN([C@@H](C)CO)C(=O)Cc2cc(NS(=O)(=O)c3ccc(Cl)cc3)ccc2O[C@H]1CN(C)Cc1ccc(C(F)(F)F)cc1`: the cytotoxicity call in the assay with HSkMC and in the assay with HepG2 was “active” in each case. Further, the growth inhibition call in the assay on S. aureus RN4220 is “inactive”.

On to `C[C@@H]1CN([C@@H](C)CO)C(=O)c2cc(NS(=O)(=O)c3cn(C)cn3)ccc2O[C@@H](C)CCCCO[C@H]1CN(C)CC1CC1`, for which the cytotoxicity call with HSkMC and in the assay on HepG2 was “inactive” in each case. For the same compound, in the assay on S. aureus RN4220, the growth inhibition call was “inactive”.

Take `C[C@H](CO)N1C[C@H](C)[C@@H](CN(C)C(=O)Nc2cccc3ccccc23)OCc2cn(nn2)CCCC1=O`: the cytotoxicity call in the assay with HSkMC and with HepG2 was “inactive” in each case. Moreover, the growth inhibition call in the assay with S. aureus RN4220 was “inactive”.

For `O=c1c(O)cc(C2Oc3cc(O)cc(O)c3CC2O)cc2c(C3Oc4cc(O)cc(O)c4CC3O)cc(O)c(O)c12` (centres undefined), the cytotoxicity call in the assay with HSkMC and in the assay with HepG2 was “inactive” each time. Also, the growth inhibition call in the assay on S. aureus RN4220 was “inactive”.

For the compound `C[C@@H]1CN([C@@H](C)CO)C(=O)Cc2cc(NC(=O)Nc3ccc(C(F)(F)F)cc3)ccc2O[C@H]1CN(C)C(=O)Nc1ccc(C(F)(F)F)cc1`, in the assay on HSkMC, the cytotoxicity call is “inactive”. Also, the cytotoxicity call in the assay on HepG2 was “active”. The growth inhibition call in the assay with S. aureus RN4220 is “inactive”.

As to `C[C@@H]1CN([C@H](C)CO)C(=O)c2cccc(NC(=O)c3ccc(-c4nccs4)cc3)c2O[C@@H]1CN(C)Cc1ccc2c(c1)OCO2`, the cytotoxicity call in the assay on HSkMC and with HepG2 was “inactive” in each case. Moreover, the growth inhibition call with S. aureus RN4220 was “inactive”.

With `Cc1cc(N2C(=O)CCC2=O)no1`, the cytotoxicity call in the assay with HSkMC and with HepG2 was “inactive” each time. For the same compound, the growth inhibition call in the assay with S. aureus RN4220 was “inactive”.

`CC(C)(C)c1cc(C(C)(C)C)n(-c2ccc(-n3cccc3)cc2)n1`: the cytotoxicity call in the assay with HSkMC and in the assay with HepG2 was “inactive” throughout. Further, the growth inhibition call in the assay with S. aureus RN4220 is “inactive”.

As to `CCCC(=O)Nc1ncnc2c1ncn2C1OC2COP(=O)([O-])OC2C1OC(=O)CCC.[Na+]` (centres undefined), the cytotoxicity call with HSkMC and with HepG2 was “inactive” each time. Further, the growth inhibition call with S. aureus RN4220 is “inactive”.

With `Cc1cc(C=Cc2ccc3cc(N(C)C)ccc3[n+]2C)c(C)n1-c1ccccc1.O=C([O-])c1cc2ccccc2c(Cc2c(O)c(C(=O)O)cc3ccccc23)c1O`, the cytotoxicity call in the assay with HSkMC and with HepG2 was “active” in each case. Further, in the assay on S. aureus RN4220, the growth inhibition call was “inactive”.

Regarding `C[C@@H]1CN([C@@H](C)CO)C(=O)Cc2cc(NC(=O)Cc3cn(C)c4ccccc34)ccc2O[C@@H]1CN(C)S(=O)(=O)c1cn(C)cn1`, the cytotoxicity call in the assay with HSkMC and in the assay on HepG2 was “inactive” in each case. In addition, the growth inhibition call in the assay on S. aureus RN4220 was “inactive”.

As for `O=C(CN1CCOCC1)N[C@H]1CC[C@H](CCNC(=O)Nc2cc(F)ccc2F)O[C@H]1CO`, the cytotoxicity call in the assay with HSkMC and with HepG2 was “inactive” in each case. Further, in the assay with S. aureus RN4220, the growth inhibition call was “inactive”.

Consider `c1ccc2c([C@@H]3CCCN3)cccc2c1`, for which the cytotoxicity call in the assay on HSkMC and in the assay with HepG2 was “inactive” each time. Besides, the growth inhibition call in the assay on S. aureus RN4220 is “inactive”.

Turning to `CC12CCC(=O)C=C1C=CC1C2CCC2(C)C1CCC21CCC(=O)O1` (centres undefined), the cytotoxicity call in the assay on HSkMC and in the assay with HepG2 was “inactive” in each case. Also, the growth inhibition call in the assay on S. aureus RN4220 was “inactive”.

In the case of `Cc1noc(C)c1S(=O)(=O)Nc1ccc2c(c1)CC(=O)N([C@H](C)CO)C[C@H](C)[C@H](CN(C)Cc1ccc(Oc3ccccc3)cc1)O2`, the cytotoxicity call with HSkMC and in the assay on HepG2 was “inactive” throughout. In the assay with S. aureus RN4220, the growth inhibition call was “inactive”.

As for `C=C1CCC(=O)C(C)CCC2C1CC2(C)C` (centres undefined), the cytotoxicity call in the assay with HSkMC and with HepG2 was “inactive” each time. Also, the growth inhibition call in the assay with S. aureus RN4220 was “inactive”.

With `COc1ccc(S(=O)(=O)Nc2ccc3c(c2)C(=O)N([C@H](C)CO)C[C@@H](C)[C@H](CN(C)CC2CC2)O3)cc1`, the cytotoxicity call with HSkMC and with HepG2 was “inactive” each time. In addition, the growth inhibition call with S. aureus RN4220 is “inactive”.

Turning to `O=C(CN1CCOCC1)NCC[C@H]1CC[C@@H](NS(=O)(=O)c2ccc(Cl)cc2)[C@H](CO)O1`, the cytotoxicity call with HSkMC and with HepG2 was “inactive” in each case. Moreover, in the assay on S. aureus RN4220, the growth inhibition call was “inactive”.

With `C[C@@H]1CN([C@@H](C)CO)C(=O)CCCn2nncc2CO[C@@H]1CN(C)C(=O)CCCN(C)C`, the cytotoxicity call with HSkMC and in the assay on HepG2 was “inactive” each time. Further, in the assay with S. aureus RN4220, the growth inhibition call was “inactive”.

In the case of `C[C@H](CO)N1C[C@H](C)[C@@H](CN(C)S(=O)(=O)c2ccc(F)cc2)Oc2c(NC(=O)c3cnccn3)cccc2C1=O`, the cytotoxicity call in the assay on HSkMC and in the assay with HepG2 was “inactive” in each case. For the same compound, the growth inhibition call with S. aureus RN4220 is “inactive”.

With `C[C@@H]1CN([C@H](C)CO)C(=O)c2cc(NC(=O)Nc3ccc(F)cc3)ccc2O[C@@H](C)CCCCO[C@H]1CN(C)Cc1ccc(C(=O)O)cc1`, the cytotoxicity call in the assay with HSkMC and in the assay with HepG2 was “inactive” in each case. The growth inhibition call in the assay with S. aureus RN4220 is “inactive”.

For the compound `CC(=O)NCC(=O)NS(=O)(=O)c1ccccc1`, the cytotoxicity call in the assay with HSkMC and in the assay on HepG2 was “inactive” each time. In the assay on S. aureus RN4220, the growth inhibition call was “inactive”.

`C[C@H](CO)N1C[C@H](C)[C@@H](CN(C)S(=O)(=O)c2cn(C)cn2)Oc2ccc(NS(=O)(=O)c3ccc(F)cc3)cc2CC1=O`: the cytotoxicity call with HSkMC and in the assay with HepG2 was “inactive” in each case. In the assay with S. aureus RN4220, the growth inhibition call is “inactive”.

As to `C[C@H]1CN([C@@H](C)CO)S(=O)(=O)c2ccc(/C=C/c3ccccc3)cc2O[C@H]1CN(C)C(=O)CN1CCOCC1`, the cytotoxicity call in the assay on HSkMC and with HepG2 was “inactive” in each case. For the same compound, the growth inhibition call in the assay with S. aureus RN4220 was “inactive”.

On to `Cc1noc(C)c1S(=O)(=O)Nc1ccc2c(c1)C(=O)N([C@@H](C)CO)C[C@H](C)[C@H](CN(C)C(=O)Nc1ccccc1)O2`, for which the cytotoxicity call in the assay with HSkMC and with HepG2 was “inactive” in each case. Moreover, the growth inhibition call in the assay on S. aureus RN4220 was “inactive”.

As to `Cc1cc(=S)oc2ccccc12`, the cytotoxicity call in the assay on HSkMC (human skeletal muscle cells) and in the assay with HepG2 was “inactive” each time. The growth inhibition call with S. aureus RN4220 was “inactive”.

Consider `C=CC[C@H](CC(=O)NCCO)C(=O)N[C@@H](COC(=O)[C@@H](CC=C)CC(=O)OC(C)(C)C)Cc1c[nH]c2ccccc12`, for which the cytotoxicity call in the assay with HSkMC and in the assay on HepG2 was “inactive” each time. For the same compound, in the assay with S. aureus RN4220, the growth inhibition call is “inactive”.
